Assay results taken from PubChem BioAssay AID2546 (National Center for Advancing Translational Sciences (NCATS), 2010).
Hit rate of the full screen: of about 310,000 compounds, about 11,000 (3.5%) were called active. This list was built around the results that the source calls inconclusive (neither active nor inactive); the mix of calls is not that of the screen. The call rests on the fitted dose curve; in most records, active means well fitted inhibition curve with a large enough effect; inconclusive means small, poorly fitted or top-dose-only effect, or effect the other way; inactive means flat fitted curve, though single readings scatter. Potencies of inconclusive entries are left out as doubtful fits.

Test: VP16 counterscreen qHTS for inhibitors of ROR gamma transcriptional activity;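 further: Gal4-VP16 expression switched on by copper sulfate through the metallothionein promoter; nearly all actives have a fitted effect of over 50% in size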
Settings: Drosophila S2 Gal4-VP16 UAS-luciferase, luminescence, 20 h; activity, negative = inhibition: at 53.6 µM (top of the series)
On the % scale 0 is the no-effect control and ±100 the full control effect; potency means the concentration at half of the fitted maximal effect; tags describe the fitted curve by direction and shape.

Compound	Potency	activity, negative = inhibition
c1cncc(-c2nc3cc4ccccc4cc3[nH]2)c1	inconclusive [inhibitor, single point]	
CCC(=O)c1cc(F)c(N2CCN(C(=O)Cc3ccccc3)CC2)cc1C	active: 12.6 µM	
Cc1cc(-c2n[nH]c(=S)n2/N=C/c2ccccc2[N+](=O)[O-])n[nH]1	inconclusive [activator, single point]	
O=C(CSc1nnnn1-c1ccc(O)cc1)Nc1cccc(S(=O)(=O)N2CCCC2)c1	inconclusive [inhibitor, single point]	
COc1ccc(C(C)=O)cc1CN1CCCCC1	inconclusive [activator, single point]	
CCCCN1C(=O)CCC(C(=O)O)C1c1ccccc1 (centres undefined)	inconclusive [inhibitor, partial curve, poor fit]	
COc1ccc2nc(NC(=O)c3cnccn3)sc2c1	active: 10 µM	
COCCSc1ccccc1C(=O)NCCc1ccccc1	inconclusive [activator, single point]	
C/C(=N/NC(=O)CCC(=O)Nc1ccc(Br)cc1)c1ccc(Br)cc1		inactive: 8.19%
O=C(NCc1cccs1)c1ccccc1F		inactive: 10.5%
CCc1ccc(NC(=O)c2ccc(F)c(S(=O)(=O)NCC3COc4ccccc4O3)c2)cc1 (centres undefined)	inconclusive [inhibitor, single point]	
Cn1c(Cc2ccccc2)nnc1SCC(=O)c1ccc(Br)s1	inconclusive [inhibitor, single point]	
C/C=C1\COC(C(=O)NCc2ccncc2)(C(F)(F)F)C=C1C=C1CCCCC1 (centres undefined)	inconclusive [inhibitor, partial curve, poor fit]	
O=C(NC(=S)Nc1ncccn1)c1ccccc1Br	inconclusive [inhibitor, single point]	
CCN(CC)S(=O)(=O)c1cc(NC(=O)c2n[nH]c(=O)c3ccccc23)ccc1C	inconclusive [activator, full curve]	
Cc1nnc(SCc2ccccc2CSc2nnc(C)s2)s1		inactive: 2.84%
CNC(=S)NNC(=O)COc1ccccc1C	active: 10 µM	
COc1ccccc1NC(=O)Cc1csc(NC(=S)Nc2ccc(C)cc2)n1	active: 2.82 µM	
CC1=C(C)/C(=N\OS(=O)(=O)c2ccc(C)cc2)C=CC1=O	active: 2 µM	
Cc1nc2cc(NC(=O)c3ccc(Br)s3)ccc2s1	inconclusive [inhibitor, partial curve]	

Compound	Potency	activity, negative = inhibition
Cc1ccc(/C=N/NC(=S)NC2CCS(=O)(=O)C2)cc1 (centres undefined)	active: 5.01 µM	
O=C(Nc1cccc(O)c1)c1noc2c1CCCCC2	active: 3.55 µM	
CCOc1cc(C(N)=O)cc(Cl)c1OCC		inactive: -11.2%
COc1ccc(C2=Nn3c(nnc3-c3ccco3)SC2)cc1		inactive: -4.75%
Cc1ccc(C(=O)Nc2nc(-c3ccccn3)cs2)o1	inconclusive [inhibitor, single point]	
O=C(COC(=O)/C=C/c1ccco1)Nc1ncc(C(F)(F)F)cc1Cl	inconclusive [inhibitor, single point]	
O=C(CCNC(=O)C1CCN(S(=O)(=O)c2ccccc2)CC1)NCc1ccc(Cl)cc1Cl		inactive: -6.52%
Cc1c(NS(=O)(=O)c2cc(C(=O)NCCN(C)C)ccc2Cl)c(=O)n(-c2ccccc2)n1C		inactive: -4.27%
COc1c(C)cc(Br)cc1C(=O)Nc1ccc(Cc2ccncc2)cc1	inconclusive [inhibitor, single point]	
CC(C)(C)C1=CC(=O)C(=O)C(C(C)(C)C)=C1	active: 12.6 µM	
C=C(C)c1cccc(C(C)(C)NC(=O)NCC2COCCO2)c1 (centres undefined)	inconclusive [inhibitor, partial curve]	
Cc1cccc2[nH]c3c(N4CCC5(CC4)OCCO5)ncnc3c12	active: 5.01 µM	
O=c1nc2c(-c3cccc(Br)c3)n[nH]n2c2ccccc12	inconclusive [activator, full curve]	
O=C(N/N=C/c1ccccc1O)c1ccncc1	active: 2.82 µM	
CCCCC#Cc1ccc(C(=O)NNC(=O)Nc2ccccc2)o1		inactive: -4.46%
Cc1c(Cl)cccc1NC(=O)CSC(N)=O		inactive: -6.43% [at 10 µM]
Cc1cc2c(cc1C)NC1=C(N2)OC(c2cccc(O)c2)C1=O (centres undefined)		inactive: 3.15%
CNS(=O)(=O)c1ccc(Oc2ccc(S(=O)(=O)NC)cc2)cc1	inconclusive [inhibitor, single point]	
O=C(OC(c1ccc(NS(=O)(=O)c2ccccc2)cc1)(C(F)(F)F)C(F)(F)F)c1ccccc1	inconclusive [inhibitor, single point]	
